# In PubChem BioAssay AID686978 (National Center for Advancing Translational Sciences (NCATS), 2013):
# Values joined by “and” are separate entries in the source; they are usually repeats but may differ in a detail not shown here. Identical values can stand only once. The whole screen tested about 420,000 compounds, of which about 64,000 (15%) were called active. Inconclusive results, whose numbers are uncertain, are shown with a selection of clear calls. The call rests on the fitted dose curve; in most records, active means well fitted inhibition curve with a large enough effect; inconclusive means small, poorly fitted or top-dose-only effect; inactive means flat fitted curve, though single readings scatter. Potencies beside an inconclusive call are fits to weak or partial responses and may not hold up.
# Assay: qHTS for Inhibitors of human tyrosyl-DNA phosphodiesterase 1 (TDP1): qHTS in cells in absence of CPT; further: nearly all actives have a fitted effect of over 55% in size
# Conditions: DT40 Tdp1-/- hTDP1 cells, no CPT, ATP luminescence, 48 h; activity change, negative = growth inhibition: at 46.2 µM (top of the series) unless noted
# Procedure, shortened: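 Camptothecin absent (DMSO only). Human TDP1-complemented DT40 knockout cells, 400 cells/well, 37 °C for minimum 48 hr; ATP measured via CellTiter-Glo, 30 min dark incubation, luminescence.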
# On the % scale 0 is the no-effect control and ±100 the full control effect; potency means the concentration at half of the fitted maximal effect; tags describe the fitted curve by direction and shape.
SMILES,Potency,"activity change, negative = growth inhibition"
O=c1c2c3c(sc2nc2n1CCCCC2)CCCC3,inactive,–
COc1ccc(CNc2cc(C)nc3ccc(OC)cc23)cc1,active: 20.6 µM,–
Cc1ccc2nsnc2c1S(=O)(=O)N(Cc1ccco1)Cc1cc2ccc(C)c(C)c2[nH]c1=O,"inconclusive: 6.51 µM [inhibitor, single point]",–
COc1ccc(/C(C)=N/NC(=S)NCCc2ccccc2)c(O)c1,active: 0.58 µM,–
Cc1csc(-c2cc(C(=O)NCc3ccc(F)cc3)n[nH]2)c1,"inconclusive: 25.9 µM [inhibitor, single point]",–
COc1ccc(CNC(=O)c2ccc3c(c2)N(Cc2ccc(C)cc2)CCS3)cc1,"inconclusive: 13 µM [inhibitor, partial curve]",–
Cc1ccccc1C(=O)Nc1ccc2nc(SCC(=O)N3CCc4ccccc43)sc2c1,active: 3.66 µM,–
CCOc1ccc(NC(=O)NC2CCCc3ccccc32)cc1 (configuration not stated),inactive,–
Cc1cccc(NC(=O)c2ccc(NC(C)c3ccccc3)c([N+](=O)[O-])c2)n1 (configuration not stated),"inconclusive: 16.4 µM [inhibitor, single point]",–
COc1ccc(NC(=O)Nc2ccc3c(c2)N(C)C(=O)CS3)cc1OC,"inconclusive: 29.1 µM [inhibitor, partial curve, poor fit]",–
O=[N+]([O-])c1ccc(OCCCOc2cccc3cccnc23)cc1,"inconclusive: 25.9 µM [inhibitor, single point]",–
COC(=O)c1cc(C(=O)OCC(=O)N(C)C2CCS(=O)(=O)C2)cc([N+](=O)[O-])c1 (configuration not stated),inactive,–
CCc1ccccc1NC(=O)CNC(=O)CCC(=O)c1cc(C)sc1C,"inconclusive: 29.1 µM [inhibitor, single point]",–
CCOc1ccc(NC(=S)NNC(=O)c2cc(Br)ccc2Cl)cc1,inactive,–
CCOC(=O)c1cnc2nc(NCc3cccc(Br)c3)[nH]n2c1=O,inactive,–
Nc1c(C(=O)Nc2ccc(S(=O)(=O)N3CCCC3)cc2)sc2nc3ccc(OC(F)(F)F)cc3cc12,active: 18.4 µM,–
Cc1cccc(NC(=O)COC(=O)c2cccc3c2C(=O)c2ccccc2C3=O)c1C,active: 16.4 µM,–
COc1ccc(-c2noc(C3CCCN(C(=O)c4ccc(C)cc4)C3)n2)cc1 (configuration not stated),active: 23.1 µM,–
CC1Sc2ccc(C(=O)N(CCc3ccccc3)Cc3ccccc3)cc2NC1=O (configuration not stated),"inconclusive: 23.1 µM [inhibitor, single point]",–
CCS(=O)(=O)c1ccc2oc(Nc3ccccc3C)nc2c1,"inconclusive: 5.8 µM [inhibitor, partial curve]",–
CC(=O)Nc1ccccc1-c1nc(CNC(=O)c2cc(C)ccc2C)c(C)o1,inactive,–
O=C(Nc1ccc(-c2csc(Nc3ccccc3)n2)cc1)c1ccccc1,active: 20.6 µM,–
O=C1c2ccccc2[C@@H]2C[C@@H](O)[C@H](Nc3cccc4ccccc34)CCN12,active: 16.4 µM,–
Cc1cc(C)cc(NC(=O)C2CCCN2S(=O)(=O)c2ccc3c(c2)CCCC(=O)N3)c1 (configuration not stated),"inconclusive: 29.1 µM [inhibitor, single point]",–

SMILES,Potency,"activity change, negative = growth inhibition"
COc1ccccc1Cn1c(/C=C/c2ccccc2)nc2ccccc21,"inconclusive: 23.1 µM [inhibitor, single point]",–
Cc1cc2c(c(=O)n1Cc1cccnc1)C(c1cccs1)C(C#N)=C(N)O2 (configuration not stated),"inconclusive: 29.1 µM [inhibitor, single point]",–
COc1cccc(-c2nnc(SCC(=O)Nc3cc(C)on3)o2)c1,"inconclusive: 29.1 µM [inhibitor, single point]",–
O=C(Nc1cccc(F)c1)N1CC[C@@]2(CCCN(S(=O)(=O)c3ccccc3)C2)C1,"inconclusive: 10.3 µM [inhibitor, partial curve, poor fit]",–
COc1ccccc1CNC(=O)CC(c1ccc(C)cc1)N1Cc2ccccc2C1=O (configuration not stated),"inconclusive: 29.1 µM [inhibitor, single point]",–
CC(c1ccon1)N(C)C(=O)CCc1nnc(C2(c3ccc(Cl)cc3)CCC2)o1 (configuration not stated),"inconclusive: 29.1 µM [inhibitor, single point]",–
CN(C)c1cccc2c(S(=O)(=O)N3CCCC3)cccc12,"inconclusive: 16.4 µM [inhibitor, single point]",–
O=C(COC(=O)c1ccccc1)NCCC1=CCCCC1,inactive,–
CN(CCNC(=O)c1ccc(CS(=O)(=O)c2ccc(Br)cc2)o1)CCc1ccccc1,"inconclusive: 23.1 µM [inhibitor, partial curve]",–
O=C(CCC1CCCN(Cc2ccc(O)c(Cl)c2)C1)NCc1ccccc1F (configuration not stated),"inconclusive: 9.2 µM [inhibitor, partial curve]",–
CN(c1ccc(OCC(=O)Nc2nc(-c3ccccc3)cs2)cc1)S(=O)(=O)c1ccc(F)cc1,active: 20.6 µM,–
Cc1nnc(NCc2n[nH]c(=O)c3ccccc23)c2ccccc12,active: 10.3 µM,–
O=[N+]([O-])c1ccc(CSc2ncnc3ccccc23)cc1,"inconclusive: 25.9 µM [inhibitor, single point]",–
Cn1c(N)c(C(=O)COC(=O)c2ccc(OC(F)F)cc2)c(=O)n(C)c1=O,"inconclusive: 8.2 µM [inhibitor, partial curve]",–
CC(C)(C)C(=O)Nc1nnc(COc2ccc(Cl)cc2)s1,"inconclusive: 29.1 µM [inhibitor, single point]",–
CCN1CCN(c2cc(C(C)C)nc3c(-c4ccccc4)c(C)nn23)CC1,active: 20.6 µM,–
COc1ccc2c(c1)Cc1sc(NC(=O)c3cccc(C)c3)nc1-2,"inconclusive: 14.6 µM [inhibitor, single point]",–
COc1ccc(-c2ccnc(-c3ccc(O)cc3)n2)cc1,active: 1.84 µM,–
CC(C)(C)OC(=O)N1Cc2ccccc2C[C@H]1C(=O)O,inactive,–
Cc1c(C(=O)N2CCCCC2)c(S(=O)(=O)N2CCN(c3ccc(Cl)cc3)CC2)c(C)n1C,"inconclusive: 29.1 µM [inhibitor, single point]",–
CCc1ccccc1NC1=NCC(=O)N1Cc1ccc2c(c1)OCO2,"inconclusive: 29.1 µM [inhibitor, partial curve]",–
Cc1nc2ccccc2nc1OCc1ccccc1,inactive,–
CC(=O)Nc1nn(C)c2nc(C)cc(C)c12,inactive,–
CN(Cc1ccco1)S(=O)(=O)c1ccc(CN2C(=O)c3cccnc3C2=O)s1,inactive,–

SMILES,Potency,"activity change, negative = growth inhibition"
CCCSc1cc(=O)n(-c2ccccc2)nc1C(=O)OCC,–,inconclusive: -33.2% [inhibitor]
O=C(N/N=C/c1cc([N+](=O)[O-])ccc1O)C12CC3CC(CC(C3)C1)C2,active: 23.1 µM,–
O=C(NCC1CCCO1)c1ccc2ccccc2n1 (configuration not stated),inactive,–
COc1cccc(CNc2ccc3nc(-c4ccc(N)cc4)c(OC)n3n2)c1,"inactive and inconclusive: 29.1 µM [inhibitor, single point]",–
COc1cccc(N2CC(C(=O)N3CCC4(CC3)CC(=O)c3ccccc3O4)CC2=O)c1 (configuration not stated),"inconclusive: 32.6 µM [inhibitor, single point]",–
Cc1ccc(-n2nc(C(=O)NCc3ccco3)c3c4ccccc4n(C)c3c2=O)cc1,"inconclusive: 9.2 µM [inhibitor, partial curve]",–
O=C(CCCSc1nnc(-c2cccs2)n1CC1CCCO1)c1ccccc1 (configuration not stated),"inconclusive: 29.1 µM [inhibitor, single point]",–
CCOC(=O)CN1N=C(/C=C/c2ccc(C(C)C)cc2)CCC1=O,"inconclusive: 16.4 µM [inhibitor, single point]",–
Cc1cc(-c2ccc(/C=N/n3cnnc3)o2)c([N+](=O)[O-])cc1C,inactive,–
O=C(O)CSC1=NS(=O)(=O)c2ccccc21,"inconclusive: 14.1 µM [inhibitor, partial curve, poor fit]",–
Cc1ccc(OCC(=O)OC2=C(C(=O)c3ccccc3)N(C)S(=O)(=O)c3ccccc32)cc1,active: 4.11 µM,–
NC(CCc1ccccc1)c1csc(Nc2ccc(C(F)(F)F)cn2)n1 (configuration not stated),"inconclusive: 29.1 µM [inhibitor, single point]",–
Cc1ccccc1NC(=O)c1sc2nc3n(c(=O)c2c1C)CCC3,"inconclusive: 29.1 µM [inhibitor, single point]",–
CNC(=S)NNC(=O)c1sc(-c2cc(C)on2)nc1C,inactive,–
Clc1ccc(N=C2SCCS2)cc1,inactive,–
Cc1noc(/C=C/c2ccco2)c1S(=O)(=O)N1CCC(C(=O)NCc2ccco2)CC1,"inconclusive: 29.1 µM [inhibitor, single point]",–
O=C(Nc1c(S(=O)(=O)c2ccc(Cl)cc2)csc1Br)c1ccccc1Cl,inactive,–
O=C(Nc1ccc2c(c1)Cc1ccccc1-2)c1cc2ccccc2o1,"inconclusive: 29.1 µM [inhibitor, single point]",–
CC(=O)N1CCc2cc(S(=O)(=O)NCCCN3CCN(Cc4ccccc4)CC3)ccc21,–,inconclusive: -30.6% [inhibitor]
O=C(CSc1nc(O)cc(=O)[nH]1)N1c2ccccc2CCc2ccccc21,inactive,–
CC(NC(=O)c1cc(COc2cccc(C(F)(F)F)c2)on1)c1nccs1 (configuration not stated),"inconclusive: 29.1 µM [inhibitor, single point]",–
O=C(C1CCCN1S(=O)(=O)c1ccc(Cl)cc1)N1CCN(c2ccccc2)CC1 (configuration not stated),"inconclusive: 10.3 µM [inhibitor, partial curve]",–
CC(C)C[C@H]1CNC(=S)N1CC1CCN(CCCCc2ccccc2)CC1,"inconclusive: 25.9 µM [inhibitor, single point]",–
CC(C)C(OC(=O)CN1C(=O)COc2ccccc21)C(=O)NC1CCCC1 (configuration not stated),inactive,–
